“And” between values parts separate entries of the source, which are not always exact repeats. Identical values can stand only once. Like-named read-outs stand apart in the source and are kept apart here.
Key:
healthy volunteers [1] = experiment: Safety, tolerability and heart rate after clenbuterol with or without nadolol, healthy volunteers; settings: for mean increase in supine heart rate from baseline: no nadolol
healthy volunteers [2] = experiment: Cerebral blood flow / cerebral perfusion by ASL MRI in healthy subjects
subjects with MCI or PD [3] = type: in vivo, human
subjects with MCI or PD [4] = experiment: Safety, tolerability and heart rate after clenbuterol with or without nadolol, subjects with MCI or PD; type: in vivo, human
[5] = Plasma pharmacokinetics of clenbuterol and nadolol
[6] = in vivo
clinical = settings: human, in vivo, po, 5 mg
[7] = 24 hours after a single dose of 80 μg clenbuterol

CC(C)(C)NCC(O)c1cc(Cl)c(N)c(Cl)c1 (stereo not shown) [clenbuterol]
mean increase in supine heart rate from baseline (healthy volunteers [1]; 3 hours following 20 μg clenbuterol): 7.5 bpm | mean increase in supine heart rate from baseline (healthy volunteers [1]; 3 hours following 40 μg clenbuterol): 7.5 bpm | mean increase in supine heart rate from baseline (healthy volunteers [1]; 3 hours following 80 μg clenbuterol): 9.2-12.38 bpm | severity of treatment-emergent adverse events (healthy volunteers [1]; across all subjects enrolled (healthy volunteers and MCI/PD), transient): mild-to-moderate | effects on supine, sitting or standing blood pressure (healthy volunteers [1]; clenbuterol in the absence of nadolol): no clinically meaningful effects | TEAEs considered to be related to clenbuterol, subjects (healthy volunteers [1]; healthy volunteers): 12/25 | time of maximum effects on hypokalemia and hyperglycemia after administration (healthy volunteers [1]; healthy volunteers and subjects with MCI or PD): between 90 minutes and 5 hours | mean (±SEM) percent relative displacement (MRD) of CBF from baseline in the hippocampus (healthy volunteers [2]; 160 μg clenbuterol single dose, absence of nadolol, healthy volunteers): 28.5±4.1% | CBF versus baseline (healthy volunteers [2]; 3 hours after a single dose of 80 μg clenbuterol): increases in CBF from baseline are evident | CBF versus baseline (healthy volunteers [2]; [7]): decreased but still evident | CBF versus baseline (healthy volunteers [2]; 48 hours post dose, single dose of 80 μg clenbuterol): returned to baseline | MRD of CBF in the hippocampus (subjects with MCI or PD [3]; 80 μg clenbuterol without nadolol, Day 2, 4 subjects): 17.55±6.37% | mean (±SEM) MRD of CBF in hippocampus (subjects with MCI or PD [3]; human, in vivo): 14.7±10.6% and 14.72±10.56% | mean (±SEM) MRD of CBF in whole brain (subjects with MCI or PD [3]; human, in vivo): 4.8±12.6% | increase in heart rate (subjects with MCI or PD [4]; following 80 μg clenbuterol, no nadolol): 10.67-14.65 bpm | TEAEs considered to be related to clenbuterol, subjects (subjects with MCI or PD [4]; subjects with neurodegenerative disease): 6/8 | exposure versus dose ([5]; 20 μg-160 μg clenbuterol): approximately dose-proportional increases in exposure | estimated dose (dose equivalent from PK modeling of exposure) [5, 7]: 50 µg | estimated dose (dose equivalent from PK modeling of exposure) ([5]; 48 hours after a single dose of 80 μg clenbuterol): 30 µg | plasma half-life t1/2 ([5]; clenbuterol, determined in only some subjects, highly variable): 12 to 31 h

CC(C)(C)NCC(O)COc1cccc2c1CC(O)C(O)C2 (stereo not shown) [nadolol]
exposure versus dose [6]: approximately dose-proportional increases in exposure | Cmax (clinical): 4.39 ng/mL

From patent US20260207533A1, “METHODS FOR TREATING VARIOUS CONDITIONS AND INDICATIONS WITH AGONISTS AND ANTAGONISTS” (CuraSen Therapeutics, Inc., priority 2022, published 2026)
